Test results reported in PubChem BioAssay AID1508642 (National Center for Advancing Translational Sciences (NCATS), 2021).
Out of some 43,000 compounds screened, about 200 (0.47%) were called active. Another 12% or so got no clear call; they are omitted. The call rests on the fitted dose curve; in most records, active means well fitted cell-killing curve with a large enough effect; inconclusive means small, poorly fitted or top-dose-only effect, or effect the other way; inactive means flat fitted curve, though single readings scatter. The list shows a part of the results.

Experiment: Cell viability qHTS assay in S16 Pmp22-F2sN cells; further: nearly all actives have a fitted effect of over 65% in size
Conditions: S16 Pmp22-F2sN Schwann cells (luciferase reporters placed in the Pmp22 gene) viability, CellTiter-Glo, 24 h; series mostly up to 57.5 µM; activity change, negative = cytotoxicity: at the top concentration
Procedure, shortened: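 Seed 500-1,000 S16 Pmp22-F2sN cells per well in phenol-red-free DMEM with 10% heat-inactivated FBS; pin-add 23 nL compound; incubate 24 h at 37C; add CellTiter-Glo, wait 15 min protected from light; read luminescence.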
On the % scale 0 is the no-effect control and ±100 the full control effect; potency means the concentration at half of the fitted maximal effect.

SMILES | activity change, negative = cytotoxicity | Potency
Cc1nc(-n2nc(C)c(Cc3ccc4c(c3)OCO4)c2C)sc1C(=O)Nc1ccc(Cl)cc1 | inactive: -6.25% | –
CCCOc1cccc(C2c3c(oc4ccc(F)cc4c3=O)C(=O)N2Cc2ccc3c(c2)OCO3)c1 (centres undefined) | inactive: 4.84% | –
Clc1ccccc1Nc1ncnc2c1nc1n2CCCCC1 | inactive: 18.4% | –
O=C(Nc1ccc2nc(SCCOc3ccccc3)sc2c1)c1ccc2c(c1)OCO2 | inactive: 3.21% | –
COc1ccc(C2C(C(=O)Nc3ccccc3)=C(C)Nc3nc(-c4ccccc4Cl)nn32)cc1OC (centres undefined) | inactive: -15.4% | –
CCOCCCNc1nc2cc(OC)c(OC)cc2c2nc(-c3ccccc3)nn12 | inactive: -5.83% | –
CCOC(=O)c1scc(-c2ccc(C)cc2)c1S(=O)(=O)Nc1ccc(OC)c(Cl)c1 | inactive: 5.03% | –
Cc1cccc(NS(=O)(=O)c2ccc3nc(-c4ccccc4)[nH]c3c2)c1C | inactive: -13% | –
Cc1ccc(NC(=O)Cn2c(=O)n(CCC(=O)NCc3ccccc3Cl)c(=O)c3ccccc32)c(C)c1 | inactive: -16.5% | –
Cc1ccc2c(c1)N(C(=O)Nc1cccc3c1CCCC3)CCO2 | inactive: 2.13% | –
CCCN1CCN(C(=O)Cn2c(-c3cccs3)cc3cc(F)ccc32)CC1 | inactive: -1.31% | –
O=C(NCCc1ccccc1)c1ccc(Nc2nc3ccccc3n3nnnc23)cc1 | – | active: 28.2 µM
COc1ccc(CNC(=O)c2ccc(-c3nc(CSc4ccc(C)cc4)c(C)o3)cc2)c(OC)c1 | inactive: -2.33% | –
CCOC(=O)c1c(NC(=O)CSc2cn(CCNC(=O)c3ccc(OC)cc3)c3ccccc23)sc2c1CCCC2 | inactive: 4.97% | –
COc1ccc(C2c3c(n(C)c4ccccc34)C(=O)N2CC(=O)Nc2cccc(Cl)c2)cc1 (centres undefined) | inactive: 9.67% | –
COc1ccccc1NC(=O)c1oc2ccccc2c1NC(=O)Cc1ccccc1 | inactive: -1.56% | –
COc1ccc(-c2noc(CSc3nnc(C)n3-c3cccc(C)c3)n2)cc1 | inactive: -30.2% | –
COc1cc(C(=O)NCCc2csc(-c3ccc(Cl)cc3)n2)cc(OC)c1OC | inactive: -8.09% | –
COc1ccc(O)c(C2=Nc3ccccc3N=C(c3ccccc3)C2)c1 | inactive: 0.348% | –
O=C(CN1C(=O)CC(c2ccccc2)=Nc2ccccc21)Nc1ccc(Br)cc1 | inactive: -14.1% | –
CNC(=O)c1ccc2c(c1)N(Cc1cc(C)ccc1C)C(=O)c1ccccc1S2 | inactive: -26.2% | –
Cn1nnc2c(N3CCN(c4ccc(F)cc4)CC3)ncnc21 | inactive: -1.19% | –
CCOc1cccc(CNC(=O)c2ccc(N3CCCC3)c(NC(=O)NCc3ccccc3)c2)c1 | inactive: -3.61% | –
CCc1ccc(NCc2cc3ccc(OC)cc3n(CC(=O)Nc3c(C)cc(C)cc3C)c2=O)cc1 | inactive: 7.47% | –

SMILES | activity change, negative = cytotoxicity | Potency
CC(C)Oc1ccc(C(=O)N(Cc2ccc(N(C)C)cc2)C2CCS(=O)(=O)C2)cc1 (centres undefined) | inactive: -2.68% | –
CCc1ccc(CNC(=O)Cn2nc(-c3ccc(C)cc3)ccc2=O)cc1 | inactive: -16.7% | –
COc1ccccc1N1CCN(C(=O)CCS(=O)(=O)c2ccc3c(c2)oc(=O)n3C)CC1 | inactive: -0.767% | –
Fc1ccc(-n2ncc3c(Nc4ccc5c(c4)OCCO5)ncnc32)cc1 | inactive: 3.2% | –
Cc1ccc(N2CCN(C(=O)c3cc4cc5ccc(C)cc5nc4s3)CC2C)cc1 (centres undefined) | inactive: 0.347% | –
Cc1ccc(Nc2sc(C(=O)c3ccccc3)c(N)c2S(=O)(=O)c2ccccc2)cc1Cl | inactive: -21.4% | –
Cc1ccc(C)c(NC(=O)Cn2cc(S(=O)(=O)Cc3cccc(Cl)c3)c3ccccc32)c1 | inactive: 0.78% | –
CCc1ccc(NC(=O)CN2C(=O)CSc3ccc(S(=O)(=O)N(C)C)cc32)cc1 | inactive: 1.49% | –
Cc1cc(OC(C)C(=O)N(Cc2ccc(N(C)C)cc2)Cc2ccco2)ccc1Cl (centres undefined) | inactive: -1.44% | –
Cc1ccccc1C(=O)Nc1cccc(OCc2cc(=O)n3cccc(C)c3n2)c1 | inactive: -3.94% | –
CCn1cc(C(=O)NCCc2ccc(OC)c(OC)c2)c(=O)c2cc(S(=O)(=O)N(C)C3CCCCC3)ccc21 | inactive: -25.1% | –
COc1ccc(-c2noc(CN(C(=O)C(C)Oc3ccc(C)cc3)C(C)C)n2)cc1 (centres undefined) | inactive: -19.1% | –
COc1ccc2cc3c(N)nn(C(=O)c4ccccc4Cl)c3nc2c1 | inactive: -19.3% | –
CCOc1ccc(NC(=O)N2CCN(c3ccc(Cl)c(Cl)c3)CC2)cc1 | inactive: -20.5% | –
O=C(NCc1ccccc1)c1ccc2c(c1)CCN2S(=O)(=O)c1ccc(Cl)cc1 | inactive: 0.159% | –
COc1cc(OC)cc(-c2nc3nc(C)c(CCC(=O)Nc4ccc(C)cc4C)c(C)n3n2)c1 | inactive: 0.715% | –
O=S(=O)(c1ccccc1)c1nnn2c1nc(NCc1ccc(Cl)cc1)c1sccc12 | inactive: 11.1% | –
CCN(CC)S(=O)(=O)c1ccc(C(=O)Nc2nc3ccc(Cl)cc3s2)cc1 | inactive: 27.5% | –
O=C1CCc2cc(S(=O)(=O)NCc3ccccc3Cl)cc3c2N1CC3 | inactive: 28% | –
O=C(c1cnn(-c2ccc(F)cc2)c1-n1cccc1)N1CCN(c2ccc(Cl)cc2)CC1 | inactive: -1.65% | –
COc1ccccc1NC(=O)Cn1c(=O)c(CNc2ccccc2)cc2cc(OC)c(OC)cc21 | inactive: -6.21% | –
Cc1cccc(CNC(=O)c2ccc3c(c2)c(C)c(C)n3Cc2ccccc2)c1 | inactive: -9.3% | –
COc1ccccc1C1C=C(c2ccc(C(C)C)cc2)Nc2nnnn21 (centres undefined) | inactive: 7.61% | –
Cc1cc(C)cc(OCc2cc(=O)n3c(-c4ccccc4)csc3n2)c1 | inactive: 9.43% | –

SMILES | activity change, negative = cytotoxicity | Potency
Cc1ccc(S(=O)(=O)c2nnn3c2nc(NCc2cccs2)c2sccc23)cc1 | inactive: 13.3% | –
CCn1nc(C)c2c(-c3ccccc3)cc(=O)n(C(C)C(=O)NCc3ccccc3OC)c21 (centres undefined) | inactive: -0.427% | –
COc1cccc(NC(=O)Cn2cc(S(=O)(=O)Cc3ccccc3F)c3ccccc32)c1 | inactive: -17.2% | –
O=C(CCn1ccc2cc(S(=O)(=O)N3CCCC3)ccc21)NCc1ccccc1F | inactive: -6.74% | –
COC(=O)c1cc(NC(=O)c2cc3sccc3n2Cc2ccc(Cl)cc2)cc(C(=O)OC)c1 | inactive: 9.38% | –
COc1cccc(NC(=O)c2oc3ccccc3c2NC(=O)C2CCCCC2)c1 | inactive: -7.88% | –
CCc1ccccc1NC(=O)CCCN1C(=O)CCn2nc(-c3cn(C)c4ccccc34)cc21 | inactive: 14.4% | –
COc1cc(Nc2nc(SCc3ccccc3Cl)nc3ccccc23)cc(OC)c1 | inactive: -29% | –
COc1ccc(C(=O)/C=C/c2cn(CC(O)CN3CCc4ccccc43)c3ccccc23)cc1 (centres undefined) | inactive: 25.2% | –
O=C1NC(NS(=O)(=O)c2ccccc2)(C(F)(F)F)C(=O)N1c1ccc(F)cc1 (centres undefined) | inactive: -1.65% | –
Cc1cc(N2CCC(C(=O)N(CC(C)C)CC(C)C)CC2)n2nc(C)c(-c3ccc(Cl)cc3)c2n1 | inactive: 5.6% | –
O=C(NCc1ccc(Cl)cc1)c1ccc(Cn2c(=O)c3cccn3c3cccnc32)cc1 | inactive: 1.9% | –
COCCCNC(=O)c1ccc2c(c1)N(Cc1ccccc1F)C(=O)c1ccccc1S2=O (centres undefined) | inactive: 11.7% | –
COc1ccc(-c2nnc(SCC(=O)Nc3ccc(C)c(C)c3)s2)cc1 | inactive: 0.748% | –
CCOc1ccc(N2C(=O)c3[nH]nc(-c4ccc(OC)cc4)c3C2c2cccs2)cc1 (centres undefined) | inactive: -7.87% | –
COc1ccc(S(=O)(=O)N2CCN(Cc3nc4ccc(C)cc4o3)CC2)cc1 | inactive: -5.86% | –
COc1ccc(-c2c(C)c3ccc(O)c(CN4CCCC(C)C4)c3oc2=O)cc1OC (centres undefined) | inactive: -14.7% | –
O=C1CCc2cc(S(=O)(=O)NC(C(=O)Nc3cccc(F)c3)c3ccccc3)ccc2N1 (centres undefined) | inactive: 1.52% | –
CCc1ccc(S(=O)(=O)c2cn(C)c3cc(N4CCCC4)c(F)cc3c2=O)cc1 | inactive: 2.22% | –
COc1ccc(C(=O)Nc2ccc3c(c2)CCCN3S(=O)(=O)c2ccc(C)cc2)c(OC)c1 | inactive: -7.04% | –
Cc1cc(C)cc(C(=O)NCC(c2ccc(N(C)C)cc2)N2CCCC2)c1 (centres undefined) | inactive: 6.09% | –
CN(Cc1ccccc1)c1ccc(-c2nc(-c3ccncc3)no2)cc1[N+](=O)[O-] | inactive: -24.6% | –
CCOC(=O)CC(NC(=O)CCc1c(C)nc2ncnn2c1C)c1ccc(C)cc1 (centres undefined) | inactive: -10% | –
CCOc1ccc(C(=O)NCCc2csc(-c3cccc(F)c3)n2)cc1OCC | inactive: 9.24% | –

SMILES | activity change, negative = cytotoxicity | Potency
Cc1cn2c(=O)c(S(=O)(=O)Nc3ccc(F)cc3F)c(C)nc2s1 | inactive: 15% | –
O=C(NCCC1=CCCCC1)C1CCN(C(=O)N2CCOc3ccc(Cl)cc32)CC1 | inactive: -13% | –
O=C(NCc1ccco1)c1ccc2c(c1)N(Cc1ccc(Cl)cc1)C(=O)c1ccccc1S2(=O)=O | inactive: 16.6% | –
COC(=O)c1nnn(-c2ccc(Br)cc2)c1C(=O)OC | inactive: 0.993% | –
CCOC(=O)c1noc2ncnc(Nc3cccc(OC)c3)c12 | inactive: 1.65% | –
CCOC(=O)COc1ccc(F)cc1C(=O)c1ccn2nc(-c3ccc(Cl)cc3)cc2n1 | inactive: 23.1% | –
O=C(COc1ccccc1Cl)Nc1ccc2nc(SCC(=O)N3CCCC3)sc2c1 | inactive: -2.32% | –
CCCn1c(=O)c2sccc2n2c(CCCC(=O)NCc3ccccc3)nnc12 | inactive: 4.97% | –
CC(=O)Nc1c(C)nn(-c2ccccc2)c1N1CCC(C(=O)NCc2ccccc2Cl)CC1 | inactive: -0.342% | –
Cc1ccc(S(=O)Cc2nc(-c3ccc(C(=O)NCc4cccc(C)c4)cc3)oc2C)cc1 (centres undefined) | inactive: -2.73% | –
O=C(CCn1nc(-c2ccc(Cl)cc2)ccc1=O)NCCc1ccccc1 | inactive: -20.6% | –
COc1cccc(NC(=O)CSc2nc(-c3ccccc3Cl)nc3c2Cc2c(CO)cnc(C)c2O3)c1 | inactive: -12.4% | –
COc1ccc(-c2cc(-c3ccccc3)nc(SCC(=O)Nc3ccccc3F)c2C#N)cc1 | inactive: 11.6% | –
CCOC(=O)C1=C(CS(=O)(=O)c2ccc(OC)c(Cl)c2)NC(=O)NC1c1cccc(OC)c1 (centres undefined) | inactive: 1.28% | –
Cc1ccc(NC(=O)N2CCC(CN3CCCC3)CC2)c(C)c1 | inactive: 13.4% | –
Cc1ccc(-c2nc(C(=O)NCc3ccccc3Cl)c3n2CCCCC3)cc1 | inactive: 1.98% | –
CCc1cccc(NC(=O)c2ccc(NC(=O)N3CCSc4ncccc43)cc2)c1 | inactive: -0.0106% | –
O=C(CCCc1ccccc1)NC1CC(=O)N(c2ccc(F)cc2)C1 (centres undefined) | inactive: 7.8% | –
COC(=O)C1CCN(S(=O)(=O)c2ccc(N3CCCCS3(=O)=O)cc2)CC1 | inactive: -4.5% | –
COC(=O)c1cc(C)nc2c1c(=O)nc(SCc1ccccc1C)n2C1CC1 | inactive: 3.97% | –
Cc1ccc(C(=O)NCC(c2ccc3c(c2)OCO3)N2CCOCC2)cc1 (centres undefined) | inactive: 7.26% | –
CCc1nn(CCCC(=O)N2CCN(c3cccc(OC)c3)CC2)c(=O)c2cc3occc3n12 | inactive: 18.9% | –
